Results reported in PubChem BioAssay AID720647 (Broad Institute, 2013).
Among all 380,000 compounds or so, about 1,300 (0.34%) were called active. The shares of active, inactive and inconclusive entries below differ from those in the screen.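 The calls were made as follows: active = drop in luminescence signal, shown as inhibition above about 50% in the replicate tests (limit read from the data, passing the limit was not always enough); inconclusive = probably only some replicates passing the limit; inactive = the rest.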

What follows are compounds tested on Drosophila bursicon receptor LGR2 (rickets) (assay: inhibitors of bursicon-induced LGR2 CRE-luciferase signal, primary screen, cell-based, HEK293, CRE-luciferase reporter, bursicon stimulation (AID 720647;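 also: agonist challenge used bursicon conditioned medium at about half maximal strength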)). Conditions: bursicon-stimulated, 4 h, at 9.99 µM, hits give high values.
With COC(=O)c1ccc2c(c1)C(C)(C)C(/C=C/c1ccc(O)cc1)=[N+]2C the inhibition was inconclusive: 72.3%.
In the case of Cc1ccc2nc(-c3ccccc3)nn2c1, the inhibition is reported as active: 86.3%.
For Nc1nnc(CCS(=O)(=O)c2ccc(Br)cc2)s1, the inhibition was inconclusive: 4.06%.
With C[C@@H]1CCCCO[C@@H](CN(C)S(=O)(=O)c2ccccc2)[C@H](C)CN([C@H](C)CO)C(=O)c2cc(NC(=O)Nc3ccc(C(F)(F)F)cc3)ccc2O1 the inhibition was inactive: -2.32%.
In the case of COC(=O)c1cccc(NC(=O)c2ccc(S(=O)(=O)N(C)c3ccccc3OC)cc2)c1, the inhibition is reported as inconclusive: 55.1%.
Cc1ccc(-c2nc(-c3ccncc3)no2)cc1C was tested, and the inhibition was inconclusive: 58.7%.
With CO[C@H]1CN(C)C(=O)c2ccc(NS(=O)(=O)c3cccc(F)c3)cc2OC[C@H](C)N(C(=O)Cc2cccnc2)C[C@@H]1C the inhibition was inactive: 26.6%.
CN(CCO)C(=O)c1nc[nH]c1C(=O)N1CCN(C(=O)OC(C)(C)C)CC1 was tested, and the inhibition was inconclusive: 2.15%.
O=[N+]([O-])c1cc(S(=O)(=O)Nc2ccc(Cl)cc2)ccc1N/N=C/c1ccncc1 was tested, and the inhibition was inconclusive: 56.2%.
With C[C@H](CO)N1C[C@H](C)[C@@H](CN(C)C(=O)Nc2ccc3c(c2)OCO3)Oc2c(cccc2N(C)C)C1=O the inhibition was inconclusive: 53%.
In the case of C[C@H](CO)N1C[C@H](C)[C@@H](CN(C)C)Oc2ccc(NS(=O)(=O)c3cccs3)cc2CC1=O, the inhibition is reported as inactive: 8.21%.
In the case of COc1ccc(-c2csc(NC(=O)CSc3nc(SC)ns3)n2)cc1, the inhibition is reported as inactive: 9.92%.
CC(C)(C)N(Cc1ccc2c(c1)OCO2)C(=O)/C=C\S(=O)c1ccccc1 (stereo not given) was tested, and the inhibition was active: 58.8%.
With CO[C@H]1CN(C)C(=O)c2cc(NC(=O)c3nc4ccccc4s3)ccc2OC[C@H](C)N(Cc2cccnc2)C[C@H]1C the inhibition was inactive: 17.6%.
With O=C(OCC(=O)N1CCOCC1)c1ccc(Cl)c(S(=O)(=O)N2CCc3ccccc32)c1 the inhibition was inconclusive: 57.4%.
Cc1ccc2oc(=O)c3cnn(CC(=O)N(Cc4ccco4)C4CCCCC4)c3c2c1 was tested, and the inhibition was active: 64.3%.
For CC[C@H](CO)Oc1cc(NCc2ccc(Cl)c(Cl)c2)c2ncn(C(C)C)c2c1, the inhibition was inconclusive: 54.9%.
In the case of CCCn1ncc(CN2CCC(CO)(CC3CCCCO3)CC2)c1C (stereo not given), the inhibition is reported as inconclusive: 20.4%.
Cc1ccc(-c2cnc3c(c2)C(=O)N([C@@H](C)CO)C[C@@H](C)[C@@H](CN(C)C(=O)c2ccc(F)cc2)O3)cc1 was tested, and the inhibition was inactive: 6.46%.
For O=Cc1ccc(OC(=O)CCCCC(=O)Oc2ccc(C=O)cc2)cc1, the inhibition was inconclusive: -9.14%.
COc1cc(SC)ccc1C(=O)Nc1ccc2c(c1)OCCO2 was tested, and the inhibition was inconclusive: 54.2%.
With N/C(=N\OC(=O)c1ccc(Cl)c(Cl)c1)c1ccccn1 the inhibition was active: 67.6%.
For CCn1c(C)cc(C(=O)CN2C(=O)c3ccccc3S2(=O)=O)c1C, the inhibition was active: 72.3%.
In the case of CC1=[N+](C)c2c(ccc3cccnc23)C1(C)C, the inhibition is reported as inconclusive: 54%.
For CC(/C=N/NC(=O)Cc1cccn1C)=C\c1ccccc1, the inhibition was inactive: -61.8%.
For C[C@H]1CCCCO[C@@H](CN(C)Cc2ccc(C(F)(F)F)cc2)[C@@H](C)CN([C@@H](C)CO)C(=O)c2cc(NS(=O)(=O)c3ccc(F)cc3)ccc2O1, the inhibition was inactive: 13.9%.
In the case of CCn1c(Cl)c(C=O)s/c1=N\S(=O)(=O)c1ccccc1, the inhibition is reported as inconclusive: 36.4%.
In the case of CC(C)c1ccc(NC(=O)N2CCN(S(=O)(=O)c3ccccc3)CC2)cc1, the inhibition is reported as inconclusive: -25%.
N/C(=N\OC(=O)c1cccc(Br)c1)c1ccccc1 was tested, and the inhibition was inconclusive: 53.3%.
For NCC[C@H]1CC[C@H](NS(=O)(=O)Cc2ccccc2)[C@@H](CO)O1, the inhibition was active: 88.9%.
Cc1cccc(/C=N/Nc2ccc3ccccc3n2)c1 was tested, and the inhibition was active: 79.3%.
For C[C@H]1CN([C@@H](C)CO)C(=O)c2cc(NS(=O)(=O)c3ccccc3)ccc2O[C@H]1CN(C)S(C)(=O)=O, the inhibition was inactive: -0.269%.
For C=CCSc1nsc(NC(=O)Nc2cccc(C(C)=O)c2)n1, the inhibition was inconclusive: 50.4%.
For COc1ccc(S(=O)(=O)Nc2ccc3c(c2)C(=O)N([C@@H](C)CO)C[C@H](C)[C@H](CN(C)S(=O)(=O)c2ccccc2)O3)cc1, the inhibition was inactive: 5.18%.
With NS(=O)(=O)c1ccc(N=Nc2ccc(=O)[nH]c2O)cc1 the inhibition was inactive: 0.651%.
c1ccc(COc2ccc(OCCCN3CCCC3)cc2)cc1 was tested, and the inhibition was inconclusive: 45.3%.
CN1c2ccc(C#Cc3cccnc3)cc2[C@H]2[C@H](CCN2C(=O)c2cccnc2)[C@H]1CO was tested, and the inhibition was inactive: -6.28%.
C[C@@H]1CN([C@@H](C)CO)S(=O)(=O)c2ccc(C3=CCCC3)cc2O[C@H]1CN(C)C(=O)c1ccccc1 was tested, and the inhibition was inconclusive: -12.2%.
OCCN1CCN(CCCN2c3ccccc3Sc3ccc(C(F)(F)F)cc32)CC1 was tested, and the inhibition was inconclusive: 15.7%.
With c1ccc(-c2cn3c(n2)-c2ccccc2C3)cc1 the inhibition was inconclusive: 49.3%.
For Cn1cccc1C(=O)OCC(=O)Nc1ccc2c(c1)OCCO2, the inhibition was inconclusive: 56.5%.
In the case of O=C(NCc1ccc(OC(F)(F)F)cc1)C1CC(c2c(Cl)cccc2Cl)=NO1 (stereo not given), the inhibition is reported as inactive: -20.4%.
For CC1CC(C)C(=NNC(N)=O)C(C(O)CC2CCC(=O)NC2=O)C1 (stereo not given), the inhibition was inconclusive: 57.2%.
With Cc1sc2ncnc(N3CCC(C(=O)N(C)CC(=O)Nc4ccccc4Cl)CC3)c2c1C the inhibition was inactive: 11.8%.
In the case of CS(=O)(=O)N1[C@@H](C#N)[C@H](c2ccc(C#Cc3cccc(F)c3)cc2)[C@@H]1CO, the inhibition is reported as inactive: -29.6%.
With O=[N+]([O-])c1ccc(Sc2cc[n+]([O-])c3ccccc23)c([N+](=O)[O-])c1 the inhibition was inconclusive: 50.4%.
For N=c1c2c(-c3ccccc3)c(-c3ccccc3)n(Cc3ccco3)c2ncn1CCCN1CCOCC1, the inhibition was inconclusive: 42.1%.
With CCOC(=O)/C(=C\c1cccc(O)c1)c1nc2sc(C)c(C)c2c(=O)[nH]1 the inhibition was active: 83.9%.
With Cc1ccc(C)c(OCC(O)CN2CCN(CCN3C(=O)c4cccc5cccc(c45)C3=O)CC2)c1 (stereo not given) the inhibition was inconclusive: 83.3%.
With O=C(Nc1ccc2c(c1)OCCO2)NC1(C(F)(F)F)Oc2ccccc2O1 the inhibition was inconclusive: 49.5%.
For COc1cccc(NC(=O)Nc2cccc(C(=O)O)c2)c1, the inhibition was active: 96.9%.
COC(=O)[C@]1(Cc2ccccc2)N[C@H](CN(C)C(=O)Nc2ccc(C(F)(F)F)cc2)[C@@H]2C(=O)N(Cc3ccccc3)C(=O)[C@@H]21 was tested, and the inhibition was inactive: 4.76%.
For CCS(=O)(=O)N1Cc2ccccc2CC1C(=O)Nc1nc2ccccc2s1 (stereo not given), the inhibition was active: 57.6%.
In the case of CN(C)c1cccc(C(=O)Nc2nc3ccccc3[nH]2)c1, the inhibition is reported as inconclusive: 37.6%.
In the case of C[C@@H]1CN([C@@H](C)CO)C(=O)c2cccc(NC(=O)Nc3ccc(C(F)(F)F)cc3)c2O[C@@H]1CN(C)C(=O)Nc1cccc2ccccc12, the inhibition is reported as active: 67.3%.
In the case of CCOC(=O)C1=CCN(S(=O)(=O)c2ccccc2C)C1c1cccc(C)c1 (stereo not given), the inhibition is reported as inconclusive: 2.31%.
In the case of O=C(C=Cc1ccccn1)c1ccccc1, the inhibition is reported as inconclusive: 1.33%.
For CC(=O)c1ccc2noc(-c3ccccc3)c2c1, the inhibition was inactive: -50.4%.
With CCCCNc1c(-c2cccc(-c3cc(C(C)=O)cs3)c2)nc2ccc(C)cn12 the inhibition was inconclusive: 55.6%.
In the case of COc1ccc(/C=C/C(=O)c2cc(F)ccc2OC(=O)c2ccccc2OC)cc1OC, the inhibition is reported as inconclusive: 57.7%.
With CO[C@@H]1CC[C@@H]2CCOc3c(C#N)cccc3C(=O)N(C)[C@@H](C)C(=O)N(C)C[C@H]1O2 the inhibition was inactive: -0.391%.
COc1ccc2cc(C(N)=O)/c(=N\NC(=O)c3ccccc3)oc2c1 was tested, and the inhibition was inconclusive: 29.7%.
For CC(=O)c1ccc(OCc2cc(C(=O)N(C)Cc3nc4c(C)cccc4[nH]3)no2)cc1, the inhibition was inactive: 5.71%.
With Cc1cc(Cl)ccc1NC(=O)CCCN1C(=O)CCC1=O the inhibition was inconclusive: -4.76%.
In the case of O=c1c(Cl)c(Cl)cnn1Cc1ccc(F)cc1, the inhibition is reported as inconclusive: 61%.
With CCOc1ccc(Nc2nc(N)c3ccccc3n2)cc1 the inhibition was active: 95.8%.
Cc1ccsc1/C=N/Nc1cccc(C(=O)O)c1 was tested, and the inhibition was active: 87.6%.
COc1cccc(-c2ccc3c(c2)[C@H]2[C@H](CCN2C(=O)NC2CCCCC2)[C@@H](CO)N3C)c1 was tested, and the inhibition was inactive: 49.4%.
In the case of Cc1ccc(NC(=O)COc2ccccc2[N+](=O)[O-])nc1, the inhibition is reported as active: 53.9%.
With CC(=O)Oc1ccccc1C(=O)C=Cc1cccc([N+](=O)[O-])c1 the inhibition was active: 101%.
With CN1CCN(NC(=O)c2cn(-c3ccccc3)nc2-c2cccc(Br)c2)CC1 the inhibition was inconclusive: 50.4%.
CN(c1ccc(C(=O)NCCSCc2ccc(Cl)cc2)cc1)S(=O)(=O)c1ccccc1 was tested, and the inhibition was inconclusive: 23.3%.
In the case of COC(=O)C(=C/C(C)=C/c1cccs1)C(=O)OC, the inhibition is reported as inconclusive: 53.7%.
In the case of Cc1cccc(/C=C(\c2nc3ccccc3[nH]2)S(=O)(=O)c2ccccc2)c1, the inhibition is reported as inconclusive: 64.1%.
For CCOC(=O)COc1cccc2c(=O)n(CC(=O)NCc3ccccc3)ccc12, the inhibition was inactive: 8.14%.
COc1ccc2c3c(n(C)c2c1)[C@H](CO)N(Cc1ccncc1)CC31CCN(C(=O)Cc2ccncc2)CC1 was tested, and the inhibition was inactive: -4.48%.
With Cc1ccc(S(=O)(=O)Nc2cccc3c2O[C@@H](CN(C)S(=O)(=O)c2ccccc2)[C@@H](C)CN([C@@H](C)CO)C3=O)cc1 the inhibition was inactive: 4.13%.
O=C(Cc1nc2ccccc2[nH]1)N/N=C/c1ccccc1 was tested, and the inhibition was inconclusive: -14.5%.
CN(C)c1ccc(C(=O)Nc2nc3c(s2)CCCC3)cc1 was tested, and the inhibition was inconclusive: 34.3%.
With COC(=O)c1c(NC(=O)C2SC(=NC3CCCCC3)C(C(N)=O)=C2N)sc2c1CCCC2 (stereo not given) the inhibition was inactive: 0.382%.
